# Sequences with one replicate were seen in a single cluster, so their values are uncertain.
# System: ATP
# Assay: switch fluorescence ratio, 500 uM ATP over buffer (Cy3 cluster intensity, sum of 5 cycles each) (fold (ratio)); higher = stronger signal-on switching upon ATP binding; sequences stand for … in TCGTCGGCAGCGTCAGATGTGTATAAGAGACAGTTTTTTTTTTTTTTTTTTTTTTTTT…TC
# Conditions: aptamer strand: ATP DNA aptamer (quencher-CACCTGGGGGAGTATTGCGGAGGAAGG + anchor), 100 nM annealed; ATP concentration: 500 uM; one replicate
# How it was run: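 The fluorescence ratio divides summed target-cycle Cy3 intensity by summed buffer-cycle Cy3 intensity for each cluster and is averaged per switch-domain sequence. Cy3-labelled switching-strand clusters on a modified Illumina MiSeq flow-cell were annealed to 100 nM quencher-labelled ATP aptamer, then imaged in selection buffer and again after 15 min with 500 uM ATP at 22 °C. Five such cycles were run, with NaOH stripping and re-annealing between them, and clusters outside 100-1000 RFU were excluded.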
# 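Note: ATP exposure 15 min at 22 °C before imaging.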
row,Sequence,switch fluorescence ratio
1,GCCGCCTGGC,0.937
2,GCCGCGCCAA,1.03
3,GCCGCTAACT,1.25
4,GCCGCTACCG,1.09
5,GCCGGAATTA,1.04
6,GCCGGCGCGA,1.06
7,GCCGGCTTTA,0.968
8,GCCGGGAACT,1.02
9,GCCGGTAAAT,0.976
10,GCCGGTCGGC,0.989
11,GCCGGTCTTT,0.986
12,GCCGTACGCG,1.03
13,GCCGTCCTGC,1.01
14,GCCGTCGTAC,0.975
15,GCCGTGTGTC,0.969
16,GCCGTTAAGC,0.996
17,GCCGTTACG,1
18,GCCGTTCCAT,1.01
19,GCCTACGAGG,1.08
20,GCCTACTTAT,1.02
21,GCCTAGCATC,1.06
22,GCCTAGTG,1
23,GCCTATGCGA,1.17
24,GCCTCCGTCG,1.99
25,GCCTCGTAAT,1.78

row,Sequence,switch fluorescence ratio
1,GCCTCTAAGC,0.969
2,GCCTCTGATG,1.03
3,GCCTGCACAC,1.49
4,GCCTGCTCCT,0.96
5,GCCTGCTTGA,0.977
6,GCCTGGTGCG,1.05
7,GCCTGTAATC,1.09
8,GCCTGTGATG,0.997
9,GCCTTAGGGC,0.981
10,GCCTTATTCG,1.03
11,GCCTTCCTTA,2.08
12,GCCTTCTCTC,1.31
13,GCCTTGGCGC,0.982
14,GCCTTGGGGT,0.971
15,GCGAAAAGGC,1.03
16,GCGAAATTAC,1.85
17,GCGAAGCGCC,1.2
18,GCGACAAATG,0.99
19,GCGACATTGG,0.989
20,GCGACATTTG,1.01
21,GCGACGTCCT,1.04
22,GCGACTCACT,1.22
23,GCGAGCACAG,1.11
24,GCGAGCGAAC,1.08
25,GCGAGGCAGG,1.01

row,Sequence,switch fluorescence ratio
1,GCGAGGCGGA,1.03
2,GCGAGGCTAT,0.982
3,GCGAGGGGTC,0.996
4,GCGAGTCTAT,1.06
5,GCGAGTGGGT,0.993
6,GCGATAATGG,1.05
7,GCGATAGCCT,0.987
8,GCGATAGGTT,1
9,GCGATATGGT,1.06
10,GCGATCCTCG,1.06
11,GCGATGGCGC,0.992
12,GCGATGGGCA,0.992
13,GCGATTAGGA,0.95
14,GCGATTTGG,1.05
15,GCGCAATGTG,1.29
16,GCGCACAATC,1.16
17,GCGCACCGAA,1.04
18,GCGCACGGGC,0.978
19,GCGCATCGTT,0.966
20,GCGCCAGCCC,1.01
21,GCGCCCACAC,1.35
22,GCGCCTAGAT,1
23,GCGCGAGTTC,1.05
24,GCGCGGGCCT,0.972
25,GCGCGTAGTA,0.998

row,Sequence,switch fluorescence ratio
1,GCGCTAGTCA,0.993
2,GCGCTATTGG,1.08
3,GCGCTCACTT,1.06
4,GCGCTCGACC,1.28
5,GCGCTCGGTG,1.03
6,GCGCTGTAGG,1.05
7,GCGCTTAGTA,1.01
8,GCGCTTGCGG,1.02
9,GCGGAAGGC,1.06
10,GCGGACACAG,1
11,GCGGACATCC,1.01
12,GCGGAGTTCG,1
13,GCGGATATGT,1.03
14,GCGGATGTGG,0.945
15,GCGGATTAC,2.71
16,GCGGCACTCA,1.07
17,GCGGCATGAC,1.27
18,GCGGCCAGG,1.26
19,GCGGCCGGAC,0.983
20,GCGGCGAAAG,0.994
21,GCGGCGTGTA,1.01
22,GCGGGACTCG,1.03
23,GCGGGAGCAC,0.986
24,GCGGGATAGC,1.05
25,GCGGGATTG,1.02

row,Sequence,switch fluorescence ratio
1,GCGGGCGCGC,0.996
2,GCGGGGAGTA,1.04
3,GCGGGGTTG,0.983
4,GCGGGTTCAT,0.987
5,GCGGGTTTTG,0.972
6,GCGGTAGTAA,0.961
7,GCGGTCCAGT,1.06
8,GCGGTCCGTC,0.98
9,GCGGTGCCTA,0.972
10,GCGGTGCGAC,1.15
11,GCGGTGGGTA,0.985
12,GCGGTTCGT,1.02
13,GCGGTTTCGC,1.02
14,GCGGTTTGGC,1.06
15,GCGGTTTGTA,0.989
16,GCGTAAGCCT,1.01
17,GCGTAATCAA,0.992
18,GCGTACCTTA,1.06
19,GCGTAGAATA,0.98
20,GCGTAGCCAT,1.05
21,GCGTAGCTGT,1
22,GCGTAGTGAA,1
23,GCGTCACGGC,1.02
24,GCGTCACTAG,1.03
25,GCGTCACTTG,0.989

row,Sequence,switch fluorescence ratio
1,GCGTCGCCGG,1
2,GCGTCGCCTA,0.917
3,GCGTCGGCCC,1
4,GCGTCGTCTT,0.988
5,GCGTCGTGTA,0.947
6,GCGTCTCTGT,0.995
7,GCGTGAACGT,1.05
8,GCGTGCAGAA,1.03
9,GCGTGCCACC,0.984
10,GCGTGCGTTA,0.981
11,GCGTGCTGTG,1.01
12,GCGTGTAAC,1.01
13,GCGTGTACAC,1.07
14,GCGTGTACCA,1.08
15,GCGTGTATGC,1.06
16,GCGTGTTAGC,1.03
17,GCGTGTTGA,1.04
18,GCGTTAAAGG,0.983
19,GCGTTAGGTA,1
20,GCGTTCGAAT,0.937
21,GCGTTGAATA,0.97
22,GCGTTGATAC,2.74
23,GCGTTGCGGT,0.976
24,GCGTTGCTTA,0.966
25,GCGTTGTCTA,1.02

row,Sequence,switch fluorescence ratio
1,GCGTTTCCCT,1.02
2,GCGTTTGACA,0.996
3,GCTAAAAAGG,0.947
4,GCTAAACCCG,1.03
5,GCTAAACGCC,1.02
6,GCTAAAGAAC,0.996
7,GCTAAAGGT,0.984
8,GCTAAATACC,1.11
9,GCTAAATTGG,0.989
10,GCTAATAACT,0.99
11,GCTAATCGAC,1.17
12,GCTACAATGC,1.45
13,GCTACCACGC,1.01
14,GCTACCAGTA,1.06
15,GCTACCCGAA,0.977
16,GCTACGATG,1.01
17,GCTACGCCGG,1.03
18,GCTACTAGTG,1.04
19,GCTACTTGTG,1.04
20,GCTAGAACGG,0.94
21,GCTAGAAGGA,0.979
22,GCTAGATCGG,0.977
23,GCTAGCTGAC,1.25
24,GCTAGCTGTA,1.04
25,GCTAGGAGGA,0.972

row,Sequence,switch fluorescence ratio
1,GCTAGGCGG,0.996
2,GCTAGGGAGT,1.01
3,GCTAGTGACG,1.05
4,GCTATAAC,3.44
5,GCTATCAATG,1.03
6,GCTATCGGCT,1.01
7,GCTATGAATT,0.957
8,GCTATTCCGC,1.22
9,GCTATTCCGT,1.03
10,GCTATTTGGC,0.945
11,GCTATTTGTG,0.997
12,GCTCAAACCC,0.997
13,GCTCAATTAG,1.02
14,GCTCACGCTG,1.23
15,GCTCCAGGTC,1.75
16,GCTCCATCTT,1.06
17,GCTCCCCCCC,1.34
18,GCTCCGAA,1.64
19,GCTCCGGGGA,3.02
20,GCTCGACGAG,1.05
21,GCTCGAGGGG,0.93
22,GCTCGAGTAT,1.01
23,GCTCGATGCC,1
24,GCTCGCAGGG,1.02
25,GCTCGGAGTC,1.03
